Experimental data: the supplement of paper PMC11417369
Some of the results follow.

Each sequence was assayed on PF3D7_0420300 AP2 domain 1 (GST-tagged) (assay: gcPBM binding intensity (ln(normalized median fluorescence intensity)); higher = stronger DNA binding).
Method in brief: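 Using an Agilent 4 × 180k array, primer-extended double-stranded 36-bp intergenic genomic probes and negative controls were exposed for 1 h to GST-fused P. falciparum DNA-binding domains expressed in E. coli. Binding was carried out in 1× PBS with 1% milk, 0.2 mg/ml BSA, 0.5% salmon testes DNA and 0.03% Triton X-100, and protein was detected with Alexa488 anti-GST antibody and a 488 nm scan. Binding intensity is the highest Masliner-normalised natural-log median intensity across replicate spots of either probe orientation.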

First: TGCTTCTTTTAAAAACATGTTTGTATTCATTTTATA [CACACA_negctrl_site1627]
Second: ACAAAAAGTTACATACGTACGTAAAATTGTAATAAA [XGTACX_site2358]
The “gcPBM binding intensity (ln)” value of the first is higher: 9.43 for the first, 9.27 for the second.

First: ATTATATTATATATATGTACATATATATATCATAAT [XGTACX_site1]
Second: ATAATACCATTAATTTGTACATATATATTATATATA [XGTACX_site4345]
The “gcPBM binding intensity (ln)” value of the first is lower: 9.13 for the first, 9.31 for the second.

Compared with “AAATGTGAAAAAGAGTGTACCCGACTTGAAATTAAG [XGTACX_site8621]”, “AGTAGAATATCCCCTACACACCCAAGTAATTTACAA [CACACA_site6708]” is higher in “gcPBM binding intensity (ln)” value: 9.43 for the first, 9.7 for the second.

First: AATTAAAAGTGAAGAGTGCATAGAATTTTTTACTTT [GTGCAC_site9973]
Second: TTTAATTTTCAATGGCGTACATATAAAATATTATAT [XGTACX_site1672]
The “gcPBM binding intensity (ln)” value of the first is higher: 9.27 for the first, 9.01 for the second.

First: GATGAATAATATGTATGTACATATGCATTATGATGT [XGTACX_site7655]
Second: ATATGCACTTTTTGCACACGTATGAATAACAAAATA [CACACA_site1810]
The “gcPBM binding intensity (ln)” value of the first is higher: 9.42 for the first, 9.19 for the second.

Compared with “ACATATAGATAAATATGTACATATATATATATATAT [XGTACX_site1806]”, “TGTAATATATGTATTGCACACCTATAACCATTATTT [CACACA_site8422]” is higher in “gcPBM binding intensity (ln)” value: 9.22 for the first, 9.55 for the second.

Compared with “TATAAGTGCCGTTATACACACGTTATATAAATATTA [CACACA_site4401]”, “ATAATTATATTTAGTGGTACTACTTTTGATAATTAG [XGTACX_site6562]” is lower in “gcPBM binding intensity (ln)” value: 9.26 for the first, 9.14 for the second.

Going from “TTCTTGTTCCTGAAAGTGCATATAACAAAAATAACA [GTGCAC_site9635]” to “ATAATTACATTCCATACACACATATATTTAAAGGTT [CACACA_site7403]”, the “gcPBM binding intensity (ln)” value rises from 9.01 to 9.6.

Going from “AATGATATATTTAAATGTACACATGAAATATAATAT [XGTACX_site2678]” to “TTATATTTGATAGTTTGTACATATAATTATTATCAT [XGTACX_site5676]”, the “gcPBM binding intensity (ln)” value falls from 9.45 to 9.31.

Going from “TATCTTCAAGTATGTACACACTATATATAATAAAAT [CACACA_site5368]” to “TTATCATATCATGGAAGTACAAATAAAATATATAAC [XGTACX_site1608]”, the “gcPBM binding intensity (ln)” value rises from 9.33 to 9.43.

Compared with “TTTTCTGTGTTTACATGTACGAAAGATTAATATTAT [XGTACX_site5214]”, “ATTTGATAGACACATGCACACATGCAATACTTTATT [CACACA_site5633]” is higher in “gcPBM binding intensity (ln)” value: 9.22 for the first, 9.43 for the second.

First: ATATATATATATATATCACACATTAATAATATATAT [CACACA_site5081]
Second: TATATAAAAATATACACACACAAATGTATATATATA [CACACA_site220]
The “gcPBM binding intensity (ln)” value of the first is lower: 9.15 for the first, 9.68 for the second.

In the case of “TACATACATACATACACACACATATAGATTTATATA [CACACA_site6999]”, the “gcPBM binding intensity (ln)” value is reported as 9.93.
